Data reported in publication PMC8444549.
No constants are given. Whether binding was seen depends on the method and setting. For part of these data: In cells and extracts the contact can be indirect. Some results given as binding are weak or reduced against the parent protein; the word gives no strength. For part of these data: Where a sequence is shown, tags or fusion partners need not be part of it.

Sequences of proteins named here, by UniProt entry; tags and fusion partners are left off. Residues count along the entry.
UniProt P01127, residues 82-190: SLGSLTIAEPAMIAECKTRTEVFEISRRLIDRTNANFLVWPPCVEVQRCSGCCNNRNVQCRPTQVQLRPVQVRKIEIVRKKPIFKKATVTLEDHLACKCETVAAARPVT

T1: Kai1-GFP fusion protein (UniProt P40237)
T1 sequence: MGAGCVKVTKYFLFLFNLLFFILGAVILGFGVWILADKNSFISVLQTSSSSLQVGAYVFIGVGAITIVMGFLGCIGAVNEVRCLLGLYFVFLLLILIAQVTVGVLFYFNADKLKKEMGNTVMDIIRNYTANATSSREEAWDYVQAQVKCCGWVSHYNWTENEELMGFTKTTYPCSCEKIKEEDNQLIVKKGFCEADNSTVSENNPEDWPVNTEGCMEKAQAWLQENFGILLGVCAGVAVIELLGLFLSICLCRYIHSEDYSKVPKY


Key:
Kai1-GFP fusion protein = biological target: T1, Kai1-GFP fusion protein; test: co-IP; Kai1-Gfp fusion vector and Dhhc-Ha vectors co-transfected into 293T cells; 23 zDHHC enzymes screened
[1] = biological target: recombinant human PDGF-BB (human) (UniProt P01127); test: BLI; BLItz instrument (ForteBio), real-time binding, shift in nm; the legends call it surface plasmon resonance (BLItz system); who was immobilised is not stated; both purified
[2] = biological target: recombinant human PDGF-BB (human) (UniProt P01127); test: condition: only cells treated with 2-bp (inhibitor of palmitoylation); co-IP; as a3, 293T cells treated with 2-bp (inhibition of palmitoylation); only the target purified
[3] = biological target: recombinant human PDGF-BB (human) (UniProt P01127); test: co-IP; 293T cell lysates in IP buffer, anti-VEGF-A or anti-PDGF-BB antibody overnight at 4 °C, protein A/G sepharose, western blot; legend names rhVEGF-A and rhPDGF-BB; only the target purified

| Binder | binding (Kai1-GFP fusion protein) | binding [1] | also measured |
| --- | --- | --- | --- |
| zDHHC3-HA (enzyme, UniProt Q8R173 1-299) MMLIPTHHFRDIERKPEYLQPEKCAPPPFPGPAGAMWFIRDGCGIACAIVTWFLVLYAEFVVLFVMLVPSRDYAYSIINGIVFNLLAFLALASHCRAMLTDPGAVPKGNATKEFIESLQLKPGQVVYKCPKCCSIKPDRAHHCSVCKRCIRKMDHHCPWVNNCVGENNQKYFVLFTMYIALISLHALIMVGFHFLHCFEEDWTKCSSFSPPTTVILLILLCFEALLFLIFTSVMFGTQVHSICTDETGIEQLKKEERRWAKKTKWMNMKAVFGHPFSLGWASPFATPDQGKADPYQYVV | binds |  |  |
| zDHHC4-HA (enzyme, UniProt Q9D6H5 1-343) MDFLVLFLFYLAFLLICVVLICIFTKSQRLKAVVLGGAQVCSRVIPQCLQRAVQTLLHQLFHTRHPTFIVLHLLLQGLVYAEYTCEVFGYCRELEFSLPYLLLPYVLLSVNLVFFTLTCAANPGTITKANESFLLQVYKFDDVMFPKNSRCPTCDLRKPARSKHCRLCDRCVHRFDHHCVWVNNCIGAWNTRYFLIYLLTLTASAATIATVTAAFLLRLVTVSDLYQETYLDDVGHFQAVDTVFLIQHLFLAFPRIVFLLGFVIVLSMLLAGYLCFALYLAATNQTTNEWYKGDWAWCQRWPLVAWSPSAEPRIHQNIHSHGFRSNLREIFLPATPSYKKKEK | binds |  |  |
| KAI1-Myc (protein, UniProt P40237 1-266) MGAGCVKVTKYFLFLFNLLFFILGAVILGFGVWILADKNSFISVLQTSSSSLQVGAYVFIGVGAITIVMGFLGCIGAVNEVRCLLGLYFVFLLLILIAQVTVGVLFYFNADKLKKEMGNTVMDIIRNYTANATSSREEAWDYVQAQVKCCGWVSHYNWTENEELMGFTKTTYPCSCEKIKEEDNQLIVKKGFCEADNSTVSENNPEDWPVNTEGCMEKAQAWLQENFGILLGVCAGVAVIELLGLFLSICLCRYIHSEDYSKVPKY |  |  | binding [2]: no binding; binding [3]: binds |

Now from value to binder, other results behind:

| binding (Kai1-GFP fusion protein) | binding [1] | Binder | also measured |
| --- | --- | --- | --- |
|  | binds | NRPEVTYPCSCEVKGEEDNS [KAI1 peptide, wild-type sequence] |  |
|  | no binding | NRPEVTAPASCEVKGAAANS [KAI1 peptide, mutant sequence] |  |
